# Among all 130,000 compounds or so, about 550 (0.42%) were called active. Inconclusive results, whose numbers are uncertain, are shown with a selection of clear calls. The call rests on the fitted dose curve; in most records, active means well fitted inhibition curve with a large enough effect; inconclusive means small, poorly fitted or top-dose-only effect, or effect the other way; inactive means flat fitted curve, though single readings scatter. Potencies of inconclusive entries are left out as doubtful fits.
# Assay: qHTS Assay for Inhibitors of the ERK Signaling Pathway using a Homogeneous Screening Assay; Stimulation with EGF; further: nearly all actives have a fitted effect of over 55% in size
# Conditions: HEK293-V1b, EGF-stimulated phospho-ERK AlphaScreen
# Procedure, shortened: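 Phospho-ERK1/2 measured by AlphaScreen (SureFire) after 5 min 25 nM EGF stimulation of V1b-expressing HEK293 cells preincubated 30 min at 37C with titrated compounds; data scaled to DMSO and EGF controls, Hill-fitted AC50.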
# Potency means the concentration at half of the fitted maximal effect; tags describe the fitted curve by direction and shape.
row,Compound,Potency
1,Cc1nc([N+](=O)[O-])cn1Cc1cccc([N+](=O)[O-])c1,inactive
2,O=C(COc1ccccc1)Nc1nnc(C23CC4CC(CC(C4)C2)C3)s1,"inconclusive [inhibitor, partial curve]"
3,O=C1C(NS(=O)(=O)c2cccs2)=C(N2CCOCC2)C(=O)c2ccccc21,"inconclusive [inhibitor, partial curve, poor fit]"
4,Cc1nn(-c2nc3ccccc3s2)c(C)c1Oc1ccccc1O,"inconclusive [inhibitor, single point]"
5,CS(=O)(=O)Nc1cccc(-c2cncnc2NCc2cccs2)c1,inactive
6,CCCCNc1nc(N)nc(-c2cc(Cl)ccc2O)n1,"inconclusive [inhibitor, single point]"
7,CC(=O)c1sc2nc(-c3ccc(C)cc3)c3c(c2c1N)CCCC3,"inconclusive [activator, partial curve]"
8,Cc1cccc(-n2c(O)cnc2Nc2nc(C)cc(C)n2)c1,inactive
9,CSCCC1NC(=O)N(CC(=O)Nc2ccc(Br)cc2Br)C1=O (centres undefined),"inconclusive [inhibitor, partial curve, poor fit]"
10,CCOC(=O)C1=C(SCC)c2cc3c(n2C1=O)CCCC3,active: 25.1 µM
11,COc1ccc(NCc2ccccc2[N+](=O)[O-])cc1OC,"inconclusive [inhibitor, single point]"
12,COc1ccc(-c2csc(NC(=S)NC(=O)/C=C/c3ccco3)n2)cc1OC,inactive
13,COc1ccc(-c2n(CC(=O)OC3CC(C)CCC3C(C)C)c3ccccc3[n+]2C)cc1 (centres undefined),active: 1.78 µM
14,COc1ccc(C(=O)NC(=S)Nc2ccc(CN3CCOCC3)cc2)cc1OC,"inconclusive [inhibitor, single point]"
15,CN(C)c1ccc(C(=C2C=CC(=[N+](C)C)C=C2)c2ccc(N(C)C)cc2)cc1,active: 12.6 µM
16,N#Cc1cccc(NC(=O)CSc2nnc(-c3n[nH]c4ccccc34)o2)c1,active: 31.6 µM
17,CCOC(=O)c1c(CSc2ccccc2)oc2ccc(O)cc12,"inconclusive [inhibitor, single point]"
18,Cc1cccc(C)c1Nc1ncnc(N)c1[N+](=O)[O-],inactive
19,O=S(=O)(c1ccccc1)N1CCC[C@@]2(CCN(Cc3cc(C(F)(F)F)cc(C(F)(F)F)c3)C2)C1,inactive
20,O=C(CSc1ncnc2sccc12)Nc1ccccc1F,"inconclusive [inhibitor, single point]"
21,O=C(CN1CCOCC1)Nc1ccc2c(c1)CCC2,"inconclusive [inhibitor, partial curve]"
22,CCOc1c(Br)cc(CNc2ccc(N3CCN(C(C)=O)CC3)cc2)cc1OC,"inconclusive [inhibitor, full curve, poor fit]"
23,CCOC(=O)C1=C(N)c2ccccc2CC1C1CCCC1 (centres undefined),"inconclusive [inhibitor, partial curve]"

row,Compound,Potency
1,O=C(Nc1cccc(S(=O)(=O)NC2=NCCC2)c1)C1CCC1,inactive
2,COC[C@H]1OC=C[C@@H](OC)[C@@H]1OC,inactive
3,COc1ccc(C(=O)N(c2ccc(C)cc2)C2C=CS(=O)(=O)C2)cc1OC (centres undefined),"inconclusive [activator, partial curve, poor fit]"
4,Cc1cc(=O)oc2c(O)c(O)ccc12,"inconclusive [inhibitor, single point]"
5,COc1ccc(/C=N/NC(=O)C(=O)/C=C2\NC3(CCCC3)Cc3ccccc32)cc1,"inconclusive [inhibitor, partial curve, poor fit]"
6,CC1CCC(C(C)C)C(OC(=O)C[n+]2cc(-c3ccc(Cl)cc3)n3c2CCCCC3)C1 (centres undefined),"inconclusive [inhibitor, single point]"
7,N#C/C(C(=O)NCc1ccccc1)=C1\SC(CCO)C(=O)N1c1ccccc1 (centres undefined),"inconclusive [inhibitor, single point]"
8,CCOc1ccc(/C(O)=C2/C(=O)C(=O)N(c3ncccn3)C2c2ccc(C)cc2)cc1 (centres undefined),inactive
9,Cc1ccccc1C(=O)N1CCN(c2ccc(NC(=O)c3ccc4c(c3)OCO4)cc2)CC1,"inconclusive [inhibitor, single point]"
10,O=C(Nc1cc(F)ccc1F)N1CCN(c2ccnc3cc(Cl)ccc23)CC1,"inconclusive [inhibitor, single point]"
11,O=S(=O)(/C=C/c1ccccc1)NC1CCCCCC1,"inconclusive [activator, partial curve, poor fit]"
12,CCCN1C[C@H](CSC)C[C@H]2c3cccc4[nH]cc(c34)C[C@@H]21,inactive
13,CN(C)S(=O)(=O)c1ccc(-c2csc(N/N=C/c3ccc(O)cc3)n2)cc1,active: 11.2 µM
14,COC(=O)N1CCC2(CCCN(Cc3ccc(C#N)cc3)C2)CC1,inactive
15,Cc1ccc(NS(=O)(=O)c2cc(NC(=O)c3ccc4c(c3)NC(=O)CS4)ccc2Cl)c(C)c1,"inconclusive [inhibitor, single point]"
16,OCCC1CN(Cc2ccccc2OC2CCCC2)CCN1Cc1ccsc1 (centres undefined),inactive
17,CC(C)(C)NC(=O)CN(c1cccc([N+](=O)[O-])c1)S(=O)(=O)c1ccccc1,"inconclusive [inhibitor, single point]"
18,Cc1ccc(Cn2ncc3c(N4CCN(CCc5ccccc5)CC4)ncnc32)cc1,"inconclusive [inhibitor, single point]"
19,O=C1Nc2ccccc2/C1=C/c1cccnc1,"inconclusive [inhibitor, single point]"
20,COCC(=O)N1CCC[C@@]2(CCN(C(=O)Nc3cccc(F)c3)C2)C1,inactive
21,CC(O)CNc1nc2ccccc2n1CC(=O)NC12CC3CC(CC(C3)C1)C2 (centres undefined),inactive
22,Cn1c(=O)c2c(ncn2C[C@@H](O)CO)n(C)c1=O,inactive
23,CCN(c1ccccc1)S(=O)(=O)c1ccc(Cl)c(NC(=O)CSc2nnc(C)s2)c1,"inconclusive [inhibitor, partial curve]"

row,Compound,Potency
1,Cc1ccccc1NC(=O)c1cc2c(C)nc3ccccc3c2o1,"inconclusive [inhibitor, single point]"
2,N#C/C(=N\Nc1ccc(Cl)cc1)C(N)=S,"inconclusive [inhibitor, partial curve]"
3,COc1ccc(C2NCCc3c2[nH]c2ccccc32)cc1COc1ccc(F)cc1 (centres undefined),"inconclusive [inhibitor, single point]"
4,CCC1(C)COC(C)(CC(=O)NNC(=O)Nc2ccccc2)OC1 (centres undefined),"inconclusive [inhibitor, single point]"
5,O=C(N/N=C/c1ccccc1OC(=O)c1ccc2c(c1)OCO2)c1ccccc1,inactive
6,Cc1ccc(NC(=O)COC(=O)CSC(=S)N2CCOCC2)cc1,inactive
7,CN(CC1CCCO1)S(=O)(=O)c1ccc(C(=O)NCc2ccccc2)cc1 (centres undefined),"inconclusive [inhibitor, single point]"
8,COc1ccc(C(=O)c2coc3c2C(=O)C(=O)c2ccccc2-3)cc1,"inconclusive [inhibitor, single point]"
9,O=C(c1cn(-c2ccccc2)nc1-c1cccc([N+](=O)[O-])c1)N1CCCCC1,"inconclusive [inhibitor, full curve]"
10,CC1(C)CC(=O)C2=C(C1)NC1=C(C(=O)c3ccccc31)C2c1cc([N+](=O)[O-])ccc1O (centres undefined),"inconclusive [inhibitor, single point]"
11,Fc1cccc(Cl)c1CNc1ccc(N2CCCC2)cc1,"inconclusive [inhibitor, single point]"
12,COC(=O)N/N=C/c1ccc(-c2ccc(Cl)cc2Cl)o1,"inconclusive [inhibitor, single point]"
13,N#Cc1c(-c2ccc(Br)cc2)cc(-c2cccnc2)nc1N,inactive
14,O=S1(=O)N=C2CCCCCN2C(c2ccc(Cl)cc2)N1 (centres undefined),"inconclusive [activator, full curve, poor fit]"
15,CC(=O)Nc1ccc(/C=C/C(=O)c2ccccc2)cc1,"inconclusive [inhibitor, single point]"
16,COC(=O)CCN(C(=O)c1ccc(C)c([N+](=O)[O-])c1)c1ccccn1,"inconclusive [activator, full curve, poor fit]"
17,CN(c1ccccc1)c1ccc(/C=C/[N+](=O)[O-])cc1,"inconclusive [inhibitor, single point]"
18,Cc1nc2ccccc2nc1CSc1nncs1,"inconclusive [inhibitor, single point]"
19,O=C(/C=C/c1ccc(O)c(O)c1)OC1C(O)CC(OC(=O)/C=C/c2ccc(O)c(O)c2)(C(=O)O)CC1O (centres undefined),"inconclusive [inhibitor, partial curve, poor fit]"
20,O=C(C1=C[C@@H](c2ccc(C(F)(F)F)cc2)C[C@@H](OCc2ccc(CO)cc2)O1)N1CCN(Cc2ccccc2)CC1,inactive
21,COc1ccc(Nc2nc(-c3ccccc3)c3ccccc3n2)cc1,"inconclusive [inhibitor, single point]"
22,CCCCc1c(C)nc2cc(-c3ccco3)[nH]n2c1=O,inactive
23,COC1=C(N)C(=O)c2nc(-c3nc(C(=O)O)c(C)c(-c4ccc(OC)c(OC)c4O)c3N)ccc2C1=O,"inconclusive [inhibitor, full curve, poor fit]"

# Source: PubChem BioAssay AID1454 (National Center for Advancing Translational Sciences (NCATS), 2008)
